The text below walks through data of PMC5892938.

Some of the results follow. At the low end of the ranking, values are background and their order means little.

For the assay, the target named is GST-SBP-SLBP (stem-loop binding protein) (UniProt Q14493). As to the kind of experiment: targeted RNA Bind-n-Seq.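 Note: DESeq read counts versus GST-SBP nonspecific binding control pulldown.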 The conditions noted are these: RBNS binding buffer: 25 mM Tris pH 7.5, 150 mM KCl, 3 mM MgCl2, 0.1% Tween, 0.5 mg/mL BSA, 1 mM DTT; 27 nM protein, 750 pM RNA pool; temperature not stated; high values mean tight binding.
As to “GGUCACGUCUCAAUCAACUCCAACGAGGGGGGGAAAACCCCUUUACCCUCUUAUUCAACAGCUCGCAGUCAAG”, the binding signal (log2 fold change) is -0.21. For “GGUCACGUCUCAAUCAACUCUCCCGAGGGGGGGAAAACCCCUUUACCCUCUUUUUCAACAGCUCGCAGUCAAG” the value was 0.135. Under “GGUCACGUCUCAAUCAACUCUUCUCCCAGGGAAAUCCCUGGCAAUGUCAACAGCUCGCAGUCAAG” stands -0.0758; under “GGUCACGUCUCAAUCAACUCAAGUCCAGGAGUUUCCUCCUGCUUAUUCAACAGCUCGCAGUCAAG”, 0.0241. For “GGUCACGUCUCAAUCAACUCAUCUCCCAGGGAAAGCCCUGGCAUUUUCAACAGCUCGCAGUCAAG” the value was -0.138. Take “GGUCACGUCUCAAUCAACUCAUUUCCAGGAGUUUUCUCCUGUUUUUUCAACAGCUCGCAGUCAAG”: the binding signal (log2 fold change) is -0.0609. Under “GGUCACGUCUCAAUCAACUCAAUUUCCAGGGAAAUCCCUGGCUAUUUCAACAGCUCGCAGUCAAG” stands -0.0682; under “GGUCACGUCUCAAUCAACUCACACGAGGGGGGGAAAACCCCUUUACCCUCAAUCUCAACAGCUCGCAGUCAAG”, -0.408; under “GGUCACGUCUCAAUCAACUCAAUCUCAGGAGUUUUCUCCUGCAAUUUCAACAGCUCGCAGUCAAG”, 0.0278. Under “GGUCACGUCUCAAUCAACUCAAUCUCAGGAGUUUACUCCUGCUUAUUCAACAGCUCGCAGUCAAG” stands -0.0997. With “GGUCACGUCUCAAUCAACUCUUCCUCAGGAGUUUCCUCCUGUAAACUCAACAGCUCGCAGUCAAG”, the binding signal (log2 fold change) amounted to 0.02.

Consider “GGUCACGUCUCAAUCAACUCUUCUUCAGGAGUUUACUCCUGCAUUUUCAACAGCUCGCAGUCAAG”, for which the binding signal (log2 fold change) was -0.033. Under “GGUCACGUCUCAAUCAACUCAUCGUCAGGAGUUUGCUCCUGCAUAUUCAACAGCUCGCAGUCAAG” stands 0.258. For “GGUCACGUCUCAAUCAACUCAUUAGAGGGGGGGAAAACCCCUUUACCCUCAAAAUCAACAGCUCGCAGUCAAG” the value was -0.0707; for “GGUCACGUCUCAAUCAACUCAUCUUCAGGAGUUUCCUCCUGUAAUUUCAACAGCUCGCAGUCAAG”, 0.0148. For “GGUCACGUCUCAAUCAACUCUUCCUCCAGGGAAAGCCCUGGCUUUCUCAACAGCUCGCAGUCAAG” the value was 0.137; for “GGUCACGUCUCAAUCAACUCUACUUCCAGGGAAAACCCUGGCUUAUUCAACAGCUCGCAGUCAAG”, -0.0575. As for “GGUCACGUCUCAAUCAACUCUACAGAGGGGGGGAAAACCCCUUUACCCUCACUCUCAACAGCUCGCAGUCAAG”, the binding signal (log2 fold change) turned out to be 0.332. Under “GGUCACGUCUCAAUCAACUCAGUCUCCAGGGAAAUCCCUGGCUAUCUCAACAGCUCGCAGUCAAG” stands -0.087. Turning to “GGUCACGUCUCAAUCAACUCAUCUCCCAGGGAAAUCCCUGGCUAAUUCAACAGCUCGCAGUCAAG”, the binding signal (log2 fold change) came to 0.157. Consider “GGUCACGUCUCAAUCAACUCAACUUCAGGAGUUUUCUCCUGCUUACUCAACAGCUCGCAGUCAAG”, for which the binding signal (log2 fold change) turned out to be 0.0374.

As for “GGUCACGUCUCAAUCAACUCUCACGAGGGGGGGAAAACCCCUUUGCCCUCAACAUCAACAGCUCGCAGUCAAG”, the binding signal (log2 fold change) was -0.1.

On to “GGUCACGUCUCAAUCAACUCAACUUCCAGGGAAACCCCUGGCUUUCUCAACAGCUCGCAGUCAAG”, for which the binding signal (log2 fold change) is -0.0924. Under “GGUCACGUCUCAAUCAACUCUUCUCCCAGGGAAAUCCCUGGCUAAUUCAACAGCUCGCAGUCAAG” stands 0.0702.

With “GGUCACGUCUCAAUCAACUCUUCUCCCAGGGAAAUCCCUGGUUUUCUCAACAGCUCGCAGUCAAG”, the binding signal (log2 fold change) is -0.0216. Under “GGUCACGUCUCAAUCAACUCAAUUUCCAGGGAAACCCCUGGCUAACUCAACAGCUCGCAGUCAAG” stands -0.0681; under “GGUCACGUCUCAAUCAACUCUUCUUCCAGGGAAACCCCUGGCAAUUUCAACAGCUCGCAGUCAAG”, 0.0173. On to “GGUCACGUCUCAAUCAACUCUCUAGAGGGGGGGAAAACCCCUUUGCCCUCAAUCUCAACAGCUCGCAGUCAAG”, for which the binding signal (log2 fold change) was -0.0129. For “GGUCACGUCUCAAUCAACUCAUCUUCCAGGGAAACCCCUGGUAAACUCAACAGCUCGCAGUCAAG” the value was -0.0245; for “GGUCACGUCUCAAUCAACUCUUUCCCCAGGGAAAACCCUGGCAAUUUCAACAGCUCGCAGUCAAG”, 0.0423; for “GGUCACGUCUCAAUCAACUCUUCUCCCAGGGAAAUCCCUGGCAUACUCAACAGCUCGCAGUCAAG”, -0.16. For “GGUCACGUCUCAAUCAACUCAGUCCCAGGAGUUUGCUCCUGCUUUCUCAACAGCUCGCAGUCAAG” the value was -0.217. Under “GGUCACGUCUCAAUCAACUCUAGUCCAGGAGUUUUCUCCUGUUUUCUCAACAGCUCGCAGUCAAG” stands -0.0871; under “GGUCACGUCUCAAUCAACUCACAAGAGGGGGGGAAAACCCCUUUACCCUCCUACUCAACAGCUCGCAGUCAAG”, -0.0725.

For “GGUCACGUCUCAAUCAACUCUUCCCCCAGGGAAAUCCCUGGUAAACUCAACAGCUCGCAGUCAAG”, the binding signal (log2 fold change) is -0.0244. As to “GGUCACGUCUCAAUCAACUCCAUAGAGGGGGGGAAAACCCCUUUGCCCUCACUUUCAACAGCUCGCAGUCAAG”, the binding signal (log2 fold change) was -0.107.

For the sequence “GGUCACGUCUCAAUCAACUCAACUCCCAGGGAAACCCCUGGUAAAUUCAACAGCUCGCAGUCAAG”, the binding signal (log2 fold change) came to 0.307.
